Consider 56 variants from the RNAGym collection of RNA variant scans (doi:10.7554/elife.90254).

B1: LINE1-mini (parent)
chain: GGCAGAGCUCAACACAGCGUGGCAAAGUGGCUGUGGCUAGACUGCC

The source gives no read counts; variants with many changes may rest on few reads.

The series covers variants of B1. The experiment in a line: self-cleavage, relative activity (ratio to wild type); higher = more cleavage; in vitro, sequencing; the parent is a self-cleaving ribozyme.
Consider GGCAGCGCUCAACACAGCGUGCCAAAUUGGCUGUGGCUAGACUGCC [A6C G22C G27U], for which the self-cleavage came to 0.04.
For GGCAGCGCUCAACACAGCGUUGCUAAGGGGCCGUGGCUAGACUGCC [A6C G21U A24U U28G U32C], the self-cleavage is 0.02.
With GGCAGCGCUCAACACAGCAUAGCAAAGUGGCUGUGGCUAGACUGCC [A6C G19A G21A], the self-cleavage stood at 1.05.
As to GGCAGCGCUCAACACAGUGUGGCAAAGUGGCUGUGGCUAGACUCCC [A6C C18U G44C], the self-cleavage is 0.12.
As for GGCAGCGCUCAACACAGCGUGGCAAAGUGACUGUGGCUAGACUGGC [A6C G30A C45G], the figure is 0.07.
As for GGCAGCGCUAAACACAGCGUGGCAAAGUGGCUGUGGCUAGACUUUC [A6C C10A G44U C45U], the figure is 0; as for GGCAGCGUUCAAUCCAGCUUGGCAAAGUGGCUGUGGCUAGACGGGC [A6C C8U C13U A14C G19U U43G C45G], 0.01.
As to GGCAGCGUUCAACACAGCCUGGCAAAGCGGCUGUGGCUAGACUGCC [A6C C8U G19C U28C], the self-cleavage came to 0.14.
Consider GGCAGCGCUCAACACAGUGUGGCAAUGAGGCUGAGGCUAGACUGCC [A6C C18U A26U U28A U34A], for which the self-cleavage turned out to be 0.03.
For GGCAGCGCUCAACACAGAGUGGCAAAGUGGCUGGGGCUAGACUGCC [A6C C18A U34G], the self-cleavage is 0.05.
As for GGCAGCGCUAAACACAGCGUGUCAAAGUGGCUGUGGCUAGACUGAC [A6C C10A G22U C45A], the figure is 0.05; as for GGCAGCGGUCAACAUAGCGUGGCAAAGUGGCUGUGGCUAGACUGCC [A6C C8G C15U], 0.02.
As for GGCAGCGGUCAACACCGCGUGACAAAGUGGCUGUGGCUAGACUGCC [A6C C8G A16C G22A], the figure is 0.02; as for GGCAGCGCCCAACUAAGCGUGGCAAAGUGGUUGUGCCUAGACUGCC [A6C U9C A14U C15A C31U G36C], 0.02.
Consider GGCAGCUCUCAACACAGCGUGGCUACGUGGCUGUGCAUAGACUGCC [A6C G7U A24U A26C G36C C37A], for which the self-cleavage is 0.03.
As for GGCAGCGCUCAACACAGCGUGGGAAAGUGGCUGUGGCUACACUGCC [A6C C23G G40C], the figure is 0; as for GGCAGCGCUCAACACAGCGUGGCAAAGUGGCUGUCUCUUGACUACC [A6C G35C G36U A39U G44A], 0.01.
In the case of GGCAGCGCUAAACACAGCGUGGCAAAGUGGCUGUGUAUAGACUGCC [A6C C10A G36U C37A], the self-cleavage turned out to be 0.01.
As for GGCAGCGCUCAACAUAACGAGGCAAAGUGGUUUUGGCUAGACUGCC [A6C C15U G17A U20A C31U G33U], the figure is 0.11; as for GGCAGCGCUCAACACAGCGUGGCAAAGUGGCUGUAGUAAGACUGCC [A6C G35A C37U U38A], 0.04.
As to GGCAGCGCUCAACACAGCGUGGCAAAGUUGCUGUGGCUAGACAGCC [A6C G29U U43A], the self-cleavage amounted to 0.06.
As to GGCAGCGCUCAACACAGAGUGGCAAAGUUGUUGUGGCUAGACUGCC [A6C C18A G29U C31U], the self-cleavage amounted to 0.
As for GGCAGCGCUCAACACAGCGUGGCAAAUUGGCUGUGUCUAGACUGCC [A6C G27U G36U], the figure is 0.05; as for GGCAGCGCUCAACACAGCGUGGCAAAGUGGCUGUAGCUAAACUGCC [A6C G35A G40A], 0.03.
With GGCAGCGCUAAAUACAGCGUGGCAAAGUGGCUGUGACUAGACUGCC [A6C C10A C13U G36A], the self-cleavage amounted to 0.05.
For the variant GGCAGCGCCCAACACAGCGUGGCAGAUUGGCUGUGGCUAGACUGCC [A6C U9C A25G G27U], the self-cleavage stood at 0.07.
Consider GGCAGCUCUCAACACAGCGGGGCAAAGUGGCUGUGGCUAGACUGAC [A6C G7U U20G C45A], for which the self-cleavage was 0.05.
In the case of GGCAGCGCACAACACAGCGUGGGAAAGUGGCUGUGGCUAGUCUGCC [A6C U9A C23G A41U], the self-cleavage amounted to 0.09.
On to GGCAGCGCUGAACACAGCGUGGUAAAGUGGCUGUGGCUAGACUGCC [A6C C10G C23U], for which the self-cleavage amounted to 0.05.
With GGCAGCGCUCAACACAGUGUGGCAAAGUGGCUGUGGCUGGACUGCC [A6C C18U A39G], the self-cleavage was 0.07.
For the variant GGCAGCGCUCAACACAGCGUGGCAAAGUGUCUGUGGAUGGACUGCC [A6C G30U C37A A39G], the self-cleavage came to 0.03.
Take GGCAGCGCUCAAGACAGCGUGACAAAGCGGCUGUGGCUAGACUGCC [A6C C13G G22A U28C]: the self-cleavage was 0.06.
GGCAGCGCUGAACACAGCGUAGCAAAGUGGCUGUGGCUAGACUGCC [A6C C10G G21A]: the self-cleavage came to 0.05.
On to GGCAGCGCUCAACACACCGUGGCAAAGUGGCUGUGGCUAGACAGCC [A6C G17C U43A], for which the self-cleavage came to 0.14.
With GGCAGCGCACAACACACCGUGGCAAAGUGGAUGUGGGUAAACUGCG [A6C U9A G17C C31A C37G G40A C46G], the self-cleavage turned out to be 0.02.
GGCAGCGCUCAAUAAAGCGGGUCAAAGUGGCUGUGGCUAGACUGUC [A6C C13U C15A U20G G22U C45U]: the self-cleavage is 0.03.
With GGCAGCGCUUAACACAGUGUGGCAAAGUGGCUGUGGCUAGACUGGC [A6C C10U C18U C45G], the self-cleavage turned out to be 0.01.
Consider GGCAGCUCUCAAAAUAGCGUGGCAAAGUGGCUGUGGCUAGACUGCC [A6C G7U C13A C15U], for which the self-cleavage came out at 0.29.
Consider GGCAGCGCUCAACACAGCGUGGCAAAGUGGCUCUGAAUAGUAUGCC [A6C G33C G36A C37A A41U C42A], for which the self-cleavage stood at 0.02.
GGCAGCGCACAACACAGCGUGGCAAUGUGGCUGUUGCUAGACUGCC [A6C U9A A26U G35U]: the self-cleavage stood at 0.03.
GGCAGCGCUAAACACAGCGUGGCGAAGUUGCUGUGGCUAGAAUGCC [A6C C10A A24G G29U C42A]: the self-cleavage turned out to be 0.
As for GGCAGCACUCAACACAGCGUGGCAAAGAGGCUGUGGCUAGACUGCC [A6C G7A U28A], the figure is 0.06.
With GGCAGCGCUUAACACAUUGUGGCAAAGUGGCUGUGGUUAGAUUGCC [A6C C10U G17U C18U C37U C42U], the self-cleavage was 0.
In the case of GGCAGCGCUCAACACAACGUGGCAAAGUGGCUGUGUCUAGACGGUC [A6C G17A G36U U43G C45U], the self-cleavage worked out at 0.01.
As to GGCAGCGCUCAACACAGCAUGGCAAAGUGGCUGUGGAGUGACUGUC [A6C G19A C37A U38G A39U C45U], the self-cleavage was found to be 0.02.
As for GGCAGCGCGCAACACAACGUGGCAAAGUGGCUAUGACUAGAGUGCC [A6C U9G G17A G33A G36A C42G], the self-cleavage was 0.
As for GGCAGCGCUCAACACAGCGUGUCAAAGUGGCUGUGGCGAUACUGCC [A6C G22U U38G G40U], the figure is 0.04.
With GGCAGCGCACAACACAGCGUGGCAAAGUGGCUAUGGCUAGCCUGCC [A6C U9A G33A A41C], the self-cleavage amounted to 0.07.
With GGCAGCCCUCAACACAGCCUACAAAAGAGGCUGUGGCUAGACAGCC [A6C G7C G19C G21A G22C C23A U28A U43A], the self-cleavage was found to be 0.01.
With GGCAGCGCUCAACACAGCGUGGCAAAGUGGCUGUGGCUAAACGGCC [A6C G40A U43G], the self-cleavage is 0.03.
In the case of GGCAGCGCUCAACACAGCUGGGCAAAGUGGCUGUGGCUAGACUGCC [A6C G19U U20G], the self-cleavage is 0.48.
For GGCAGCGCACAACACAGCGUGGCAGAGAGGCUGUGGCUAAACUGCC [A6C U9A A25G U28A G40A], the self-cleavage was 0.14.
Regarding GGCAGCGCUAAAAACAGCGUGGCAAAGUGGCUGUGACUAGUCUGCC [A6C C10A C13A G36A A41U], the self-cleavage came to 0.01.
Take GGCAGCCCUCAAUACAGCGUGACAAAGUGGCUGUGGCUAGAUUGUC [A6C G7C C13U G22A C42U C45U]: the self-cleavage was found to be 0.06.
For the variant GGCAGCGCUCAACACAGCGUGGCAAACUGGCUGUGGCUAGAAUGCC [A6C G27C C42A], the self-cleavage was 0.12.
For the variant GGCAGCGCUCAACACAGCGUGACAAAGUGGCUGUGGCUAGAAUGCU [A6C G22A C42A C46U], the self-cleavage came to 0.03.
